# The campaign covered roughly 130,000 compounds. About 1,900 (1.5%) were called active. Inconclusive means that the source gave no clear call. Such entries were picked first, then a sample of the others. The call rests on the fitted dose curve; in most records, active means well fitted cell-killing curve with a large enough effect; inconclusive means small, poorly fitted or top-dose-only effect; inactive means no such curve, though single readings can be large or run the other way. Potencies of inconclusive entries are doubtful fits and often do not repeat.
# Assay: qHTS Screen for Compounds that Selectively Target Cancer Cells with p53 Mutations: Cytotoxicity of p53ts Cells at the Nonpermissive Temperature; further: nearly all actives have a fitted effect of over 55% in size
# Settings: H1299-p53A138V viability at 39C, ATP luminescence, 24 h; activity change, negative = cell killing: at 46.1 µM (top of the series)
# On the % scale 0 is the no-effect control and ±100 the full control effect; potency means the concentration at half of the fitted maximal effect; tags describe the fitted curve by direction and shape.
Compound,Potency,"activity change, negative = cell killing"
CCOc1ccc(-c2cc(C(=O)N/N=C/c3ccc(O)c(OC)c3)[nH]n2)cc1,"inconclusive: 15.8 µM [cytotoxic, single point]",–
CCC(=O)N1CCN(c2ccccc2NC(=O)COc2cc(C)ccc2C(C)C)CC1,"inconclusive: 31.6 µM [cytotoxic, single point]",–
N[C@H](C(=O)O)[C@@H]1C[C@@H]1C(=O)O,inactive,–
COc1ccc(Cl)cc1NC(=O)CSc1ncnc2c1oc1ccccc12,–,inactive: 7.3%
CCCc1[nH]nc2c1C(c1ccc(OC)c(Cn3nc(C)c(Br)c3C)c1)C(C#N)=C(N)O2 (stereo not drawn),active: 7.94 µM,–
O=c1oc2c3c4c(cc2cc1-c1nc2ccccc2[nH]1)CCCN4CCC3,"inconclusive: 12.6 µM [cytotoxic, partial curve]",–
CC(=O)Nc1cc(CN2CCCCC2)c(O)c2ncccc12,"inconclusive: 5.01 µM [cytotoxic, single point]",–
CC(C)(C)[C@@]1(O)CCN2C[C@@H]3c4ccccc4CCc4cccc(c43)[C@@H]2C1,"inconclusive: 25.1 µM [cytotoxic, single point]",–
O=C1c2ccccc2-c2onc3ccc(NCCCn4ccnc4)c1c23,"inconclusive: 15.8 µM [cytotoxic, single point]",–
COc1ccc(C(=O)CSc2nc3nc(C)cc(C)n3n2)cc1OC,–,inactive: 3.77%
COc1ccc(N2CCN(S(=O)(=O)CCNC(=O)C3CC(=O)N(c4ccccc4)C3)CC2)cc1 (stereo not drawn),"inconclusive: 0.01 µM [cytotoxic, full curve, poor fit]",–
Cc1nc2cc(NC(=O)NCc3ccco3)ccc2n1C,–,inactive: -2.9%
O=c1[nH]c2ccccc2c2nc3ccccn3c12,"inconclusive: 20 µM [cytotoxic, single point]",–
N#CCCn1c(=O)cnc2cnc(N3CCOCC3)nc21,"inconclusive: 2.51 µM [cytotoxic, partial curve, poor fit]",–
CCn1nnc(NC(=O)c2sc3ccccc3c2Cl)n1,"inconclusive: 12.6 µM [cytotoxic, single point]",–
O=C(Nc1ccccc1)c1cnc[nH]1,"inconclusive: 12.6 µM [cytotoxic, partial curve]",–
Cc1nn2c(C)c(C(=O)N3CCN(c4ccccc4)CC3)cnc2c1-c1ccccc1,"inconclusive: 12.6 µM [cytotoxic, single point]",–
CCN1c2ccccc2-c2nc(SCC(=O)Nc3cccc(C(F)(F)F)c3)ncc2S1(=O)=O,–,inactive: -11%
COc1cccc(/C=N/NC(=O)c2nc(-c3ccccc3)cc(-c3ccccc3)n2)c1O,"inconclusive: 15.8 µM [cytotoxic, single point]",–
Cc1cc(=O)n2c(-c3ccccc3C)n[nH]c2n1,"inconclusive: 12.6 µM [cytotoxic, partial curve]",–
Cc1cc(C)cc(Nc2cc(C(=O)NCCCN(Cc3ccccc3)C(C)C)c3ccccc3n2)c1,active: 15.8 µM,–
CN(Cc1ccco1)c1ncncc1-c1cccc(NS(C)(=O)=O)c1,–,inactive: 7.36%
CC1CCc2c(sc(NC(=O)c3ccc(Cl)cc3Cl)c2C#N)C1 (stereo not drawn),"inconclusive: 15.8 µM [cytotoxic, partial curve]",–

Compound,Potency,"activity change, negative = cell killing"
Cc1ccc(-n2nc(C)c3c(C(=O)NCc4ccc(F)cc4)cc(C)nc32)cc1,–,inactive: -26.5%
O=C(CSc1nc2c([nH]c3ccccc32)c(=O)n1-c1ccc(F)cc1)NC1CCCCC1,"inconclusive: 15.8 µM [cytotoxic, single point]",–
CC(C)(C)NCc1cccn1-c1sc2c(c1C#N)CCCC2,–,inactive: -11.7%
CSc1ncc(Cl)c(C(=O)Nc2ccc(S(=O)(=O)N3CCCC(C)C3)cc2)n1 (stereo not drawn),"inconclusive: 10 µM [cytotoxic, partial curve, poor fit]",–
Cn1c(N)c(C(=O)COC(=O)c2cc(-c3ccco3)nc3ccccc23)c(=O)n(C)c1=O,"inconclusive: 1.58 µM [cytotoxic, partial curve]",–
N=c1c(C(=O)NCc2ccc(F)cc2)cc2c(=O)n3ccccc3nc2n1CCCN1CCOCC1,–,inactive: 8.59%
CCc1cc2c(=O)c(-c3ccon3)c(N)oc2cc1OC,"inconclusive: 15.8 µM [cytotoxic, partial curve]",–
CCCn1c(C)nc2c(N(CCN(C)C)Cc3ccccc3)nc(C)nc21,–,inactive: -4.39%
CCCOc1ccc(-c2nc(N)n[nH]2)cc1,"inconclusive: 10 µM [cytotoxic, partial curve]",–
Cc1ccc(-c2nnc(NCc3ccccc3)c3ccccc23)cc1,–,inactive: 10.7%
Cc1nn(-c2ccc(F)cc2)c(-n2cccc2)c1C(=O)NCCCN1CCN(c2cccc(Cl)c2)CC1,"inconclusive: 15.8 µM [cytotoxic, partial curve]",–
CCc1ccc(S(=O)(=O)Nc2cccc(-c3ccc(N4CCC(C)CC4)nn3)c2)s1,active: 10 µM,–
CC(C)(C)OC(=O)N1CCC(c2c(C(=O)NCc3ccco3)cnn2-c2ccccc2)CC1,–,inactive: 7.37%
CCN(CC)CCCNC(=O)c1ccc(-n2c(=O)c(=O)[nH]c3ccccc32)cc1,–,inactive: 9.85%
O=C(CCS(=O)(=O)c1ccc(Br)cc1)Nc1ccc(Cl)c(C(F)(F)F)c1,"inconclusive: 1.26 µM [cytotoxic, partial curve]",–
COc1cccc(NC(=O)Cn2c(=O)n(CC(=O)NCc3ccc(C)cc3)c(=O)c3sccc32)c1,"inconclusive: 12.6 µM [cytotoxic, single point]",–
Cc1ccc(-n2c(SCC(=O)NCc3ccccc3)nc3n[nH]c(C)c3c2=N)cc1Cl,active: 20 µM,–
Cn1cc(-c2nc3cnc(N4CCNCC4)nc3n(Cc3ccc(F)cc3)c2=O)c2ccccc21,"inconclusive: 25.1 µM [cytotoxic, single point]",–
Cc1cn2c(=O)cc(COc3ccccc3NC(=O)c3ccc(C(C)(C)C)cc3)nc2s1,"inconclusive: 12.6 µM [cytotoxic, partial curve]",–
Cc1noc(-c2ccc(N3CCC(C)CC3)c([N+](=O)[O-])c2)n1,"inconclusive: 12.6 µM [cytotoxic, partial curve]",–
O=c1c(CCc2ccccc2)nc2cnc(N3CCNCC3)nc2n1Cc1ccc(F)cc1,active: 12.6 µM,–
Fc1ccc(-c2cc(-c3nc(-c4ccc(Cl)cc4)no3)[nH]n2)cc1,"inconclusive: 31.6 µM [cytotoxic, single point]",–
Cc1c2cnn(CC(=O)NC(C)C)c(=O)c2c(C)n1Cc1cccc(Cl)c1,–,inactive: -7.47%

Compound,Potency,"activity change, negative = cell killing"
c1ccc2c(Nc3ccncc3)nc(-c3ccc4c(c3)OCO4)nc2c1,"inconclusive: 15.8 µM [cytotoxic, single point]",–
CCOC(=O)c1c(C)oc2nc(C)nc(NCC3CCN(Cc4cc(C)ccc4C)CC3)c12,"inconclusive: 0.0447 µM [cytotoxic, full curve, poor fit]",–
Cc1ccc(-n2nc(CO)c(C(=O)NCCC(C)C)n2)cc1C,"inconclusive: 31.6 µM [cytotoxic, single point]",–
COc1ccc(CNC(=O)C2=CC(c3ccc(OC)c(OC)c3)=NS(=O)(=O)N2C)cc1,"inconclusive: 3.98 µM [cytotoxic, single point]",–
C1CCC(C(C[C@@H]2CCCCN2)C2CCCCC2)CC1,"inconclusive: 12.6 µM [cytotoxic, single point]",–
CCOc1ccc(NC(=O)N(Cc2cn(CC)c3ccccc23)C2CCCCCC2)cc1,"inconclusive: 10 µM [cytotoxic, partial curve]",–
Cc1ccc(-c2ccc(SCC(=O)Nc3nonc3C)nn2)cc1,"inconclusive: 15.8 µM [cytotoxic, partial curve]",–
Cc1cc(C)c(NC(=O)Cn2c(=O)n(CC3CCCO3)c(=O)c3ccccc32)c(C)c1 (stereo not drawn),–,inactive: 10.8%
COc1cccc(N2CCN(C3=NS(=O)(=O)C(c4ccc(C)cc4)=C3C)CC2)c1,–,inactive: -4.28%
CCc1ccccc1S(=O)(=O)Cc1ccc(C(=O)NCCc2ccc(C)cc2)o1,–,inactive: -9.24%
CCC(Sc1nnc2c(n1)[nH]c1ccccc12)C(=O)Nc1ccccc1OC (stereo not drawn),"inconclusive: 10 µM [cytotoxic, single point]",–
O=C(Oc1ccccc1F)c1nc(SCc2ccccc2F)ncc1Cl,–,inactive: -14.5%
O=C(Nc1ccccc1C(=O)O)c1ccc(Cl)c(S(=O)(=O)N2CCOCC2)c1,"inconclusive: 10 µM [cytotoxic, partial curve]",–
CCOC(=O)c1c(C)[nH]c(C)c1C(=O)COC(=O)/C=C/c1cccc(F)c1,"inconclusive: 28.2 µM [cytotoxic, single point]",–
Cc1ccc(NC(=O)Cn2c(=O)n(-c3ccccc3)c(=O)c3ccc(C(=O)NCc4ccc5c(c4)OCO5)cc32)cc1,"inconclusive: 12.6 µM [cytotoxic, partial curve]",–
Cn1c(CSc2ccccc2)c(C#N)c2ccccc21,–,inactive: 3.15%
O=C(Nc1ccc(C(F)(F)F)cc1)c1cc(S(=O)(=O)N2CCCc3ccccc32)ccc1F,"inconclusive: 0.794 µM [cytotoxic, partial curve, poor fit]",–
Cc1ccc(NCc2cc3cc4c(cc3n(CC(=O)Nc3ccc(F)cc3F)c2=O)OCCO4)cc1,"inconclusive: 0.282 µM [cytotoxic, single point]",–
O=C(COc1ccc(Cl)cc1)Nc1ccc2nc(SCC(=O)N3CCOCC3)sc2c1,–,inactive: 3.68%
Cc1ccc(NC(=O)c2ccco2)cc1C,"inconclusive: 12.6 µM [cytotoxic, partial curve]",–
CC(C)(C)c1ccc(S(=O)(=O)c2cnc(SCC(=O)Nc3ccc4c(c3)OCCO4)[nH]c2=O)cc1,–,inactive: -15.6%
Cc1ccc(-c2nnc(SCC(=O)NC(C)(C)C)nc2-c2ccc(C)cc2)cc1,"inconclusive: 0.01 µM [cytotoxic, full curve]",–

# From PubChem BioAssay AID902 (National Center for Advancing Translational Sciences (NCATS), 2007)
